The full ranking holds about 33,000 sequences; the median of “E-score (-0.5 to 0.5)” is about -0.036, and the highest 2% start at about 0.37. The list shows a part of the results.
target: T1, Yer064c (UniProt P40041); assay: PBM E-score (8-mer binding enrichment) (E-score (-0.5 to 0.5)); higher = stronger / more preferred TF binding; most listed sequences are background and not binding sites; settings: protein concentration: 200 nM; construct: GST-full length
T1 sequence: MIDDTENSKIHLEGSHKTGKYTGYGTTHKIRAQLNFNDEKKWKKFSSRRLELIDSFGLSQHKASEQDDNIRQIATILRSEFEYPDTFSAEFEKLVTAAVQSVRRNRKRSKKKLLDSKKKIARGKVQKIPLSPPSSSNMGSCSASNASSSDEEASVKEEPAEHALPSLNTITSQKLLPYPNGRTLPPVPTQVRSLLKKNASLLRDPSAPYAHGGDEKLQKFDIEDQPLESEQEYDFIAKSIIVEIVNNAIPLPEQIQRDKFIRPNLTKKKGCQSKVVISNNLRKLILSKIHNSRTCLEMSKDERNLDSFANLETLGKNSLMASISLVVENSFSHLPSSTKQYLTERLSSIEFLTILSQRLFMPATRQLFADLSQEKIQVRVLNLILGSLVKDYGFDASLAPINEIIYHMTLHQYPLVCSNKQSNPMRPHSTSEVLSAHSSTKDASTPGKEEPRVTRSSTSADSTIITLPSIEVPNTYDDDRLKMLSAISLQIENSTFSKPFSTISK
Description: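 Universal 'all 10-mer' protein binding microarrays (Agilent AMADID 015681) probed with GST-tagged S. cerevisiae TFs (full-length or DBD) made by in vitro transcription/translation (PURExpress), about 100-200 nM. Bound TF was detected with fluorescent anti-GST. Each ungapped 8-mer (which stands for itself and its reverse complement) is scored by the PBM enrichment score (E-score), a modified Wilcoxon-Mann-Whitney statistic from -0.5 to +0.5, computed with the Universal PBM Analysis Suite. Scale: above 0.35 generally sequence-specific binding.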

Sequence | PBM E-score
AATCGAAG | 0.165
ATTTGCGG | -0.00482
CCGATGCC | -0.041
TAGCGAGA | 0.116
AACCCTCT | -0.196
AGCCTAGC | -0.166
AGACCCGA | -0.0274
CCGCGTCA | -0.294
CTACACTC | 0.062
TGCTACCA | -0.253
TAGCACGA | -0.00447
ACCTCTTG | -0.172
AACCCGAA | -0.0529
CGACTTAG | 0.272
AACGGCGT | -0.0655
AGTACGAG | 0.0389
GCTAACTA | 0.0516
ACTCTTCG | 0.213
GCCCTAAA | -0.198
GCCCCTTA | -0.199
ACTAACAT | 0.243
GAGTTTAC | 0.101
ACTCCAGT | 0.145
CTACTGTC | -0.0504
ACCAAACG | -0.0651

Sequence | PBM E-score
GAGGTCCC | -0.275
ATATTACC | 0.148
TACTAGTA | 0.216
AATTATCG | 0.228
TGCGCACA | -0.0569
CGCGGGGC | -0.15
GCTAGCAA | -0.336
AGAAGAAA | -0.0793
AATATAGC | -0.00197
GAGTTCGA | 0.185
AATCGGGG | -0.0692
ACATAGGA | -0.166
GCTCTCGA | -0.00707
CAGCCGCC | 0.0131
ACTAGAGC | -0.084
CCGACTCA | 0.441
CAAGAGTA | 0.106
AGTTTGTA | -0.0175
GAGACCAC | -0.00898
CGATCGGA | -0.101
AGGTTGAT | 0.103
ATACCAGC | -0.163
CGATTACG | 0.0176
ATATCGAC | -0.00454
CGTATTCA | 0.0313

Sequence | PBM E-score
GACCTACC | -0.0594
ATTTGAAG | -0.0752
CGTGACAC | 0.0944
TATAGAGA | -0.00508
CGCGACTC | 0.438
CCATTTCA | -0.137
AGCAGATG | -0.101
CTCATGTA | 0.243
GCAACGAC | -0.0989
AATCGAAA | -0.0264
AAAGCGGG | -0.0607
GTGGTGGA | -0.14
CCCACAGA | -0.0634
ATCAGATA | 0.0534
CGGATAGA | 0.0559
AACCTCGT | -0.17
ATCTTAGG | -0.159
AGACTAGG | 0.24
GGTACCTA | -0.0302
CGATTAGA | 0.0752
ACCCCCCA | -0.291
CTGTACTC | 0.144
CGACTGAA | 0.257
ACAATGGA | 0.0385
ACGCTTCC | -0.296

Sequence | PBM E-score
CGCTCCGA | 0.0418
GGTGGCCA | -0.183
GAAAGATA | 0.00944
AGTGGGCG | 0.0541
CGTACTAA | 0.146
AATCCGAC | 0.152
CAAGCGTG | -0.128
TCTATACA | 0.109
GACTAAAC | 0.435
CCGTCCCA | -0.189
ATGCTCGA | -0.198
ATGATAAT | 0.144
GGCCTGGA | -0.325
CACAAGTC | 0.107
TATAGCGA | -0.17
CTTCGCAA | -0.0175
GGGCCATA | -0.322
CTTTGACA | 0.0261
CACCAGCC | -0.176
ACGGATAC | 0.0529
ACCGGTAG | -0.0894
TCTCTTAA | 0.147
AAACATGA | 0.272
AAAGTGGC | -0.206
GATGGGTA | 0.32

Sequence | PBM E-score
AGTGTCCC | -0.088
AATAATCG | 0.104
GCTCATAA | 0.136
ATCAGGTC | 0.123
GCCTGTAA | -0.0134
ATATCTAC | 0.0277
CGGTTGTC | -0.144
GCGACTAA | 0.442
ATCTTCCA | 0.0233
AGTTATAG | 0.0154
AGCTCGAC | -0.0488
CCCAGGCC | -0.233
ATTACCTA | 0.0232
ATATAGCC | 0.00163
CGGGTAGC | -0.00885
ACGTTTGA | 0.0754
GCCAGAAC | -0.0316
CTTGGCAC | 0.0718
CTTGGCCA | -0.0768
AGGAAGAA | -0.174
AGCTTTAC | -0.167
CGTTGACA | -0.104
ACGGGGAC | -0.041
GAAAGAAC | -0.0932
CAGAGACG | -0.0947

Sequence | PBM E-score
AGTGAGAG | -0.0545
GCCCAGCA | -0.22
ACCGCGGA | -0.112
AGATAACC | -0.163
ACTACCAA | 0.185
CCCGCTCA | -0.162
ATGGCCGG | -0.139
AGAAGGAG | -0.217
AACGCCAA | -0.123
GAGTGATA | 0.171
GACTGGCA | -0.0577
CAATTGGG | -0.23
AGCAATCG | 0.046
CTGGGCGC | -0.189
AGGATTGA | 0.186
AGAACCAA | -0.034
ACCCAATC | 0.147
CATTGTTA | 0.0828
CTCTCTGA | 0.163
CTAACCGA | 0.171
CATTATGG | 0.0554
CGCATGGA | -0.0991
CCTTCGCG | 0.0306
ATCTTGTC | -0.0414
CATTCCAG | -0.0873

Sequence | PBM E-score
GGAACCCA | 0.0605
AGTGTGGC | -0.147
ATGTGGCC | -0.207
GATCGAGA | -0.00399
CAAAACCG | 0.00174
AAGCGAGG | -0.239
CGGAATGA | 0.149
AGACAGAG | -0.123
ATGCAGCC | -0.0746
CGACACAC | 0.0958
ATTGGTTC | 0.102
ATTGCGCA | -0.0491
ATACGGTC | -0.241
GGACTCGA | 0.118
TACCACGA | 0.018
CGAAGCTC | -0.111
ACACCACC | -0.0428
GGCTTCTA | -0.281
ATTCTGTG | 0.0508
GCCATTCC | -0.0133
TAACATAA | 0.149
GACCGCTA | -0.124

From the supplement of paper PMC3334620
